Data on 88 compounds can be found in PMC4336329 (PLoS ONE, 2015).

In all, about 310,000 compounds went through this assay and about 14,000 (4.5%) showed an effect of 50% or more. Effects have a minus sign here. The list shows a part of the results.
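Further: peak tail current of the secondary pulse compared with the same well before compound.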

For this experiment, the target named is human ether-à-go-go-related gene (hERG) potassium channel (human, UniProt Q12809). Kind of experiment: primary screen, population patch clamp on CHO cells stably expressing hERG.
human ether-à-go-go-related gene (hERG) potassium channel, sequence (Q12809 whole entry, looked up): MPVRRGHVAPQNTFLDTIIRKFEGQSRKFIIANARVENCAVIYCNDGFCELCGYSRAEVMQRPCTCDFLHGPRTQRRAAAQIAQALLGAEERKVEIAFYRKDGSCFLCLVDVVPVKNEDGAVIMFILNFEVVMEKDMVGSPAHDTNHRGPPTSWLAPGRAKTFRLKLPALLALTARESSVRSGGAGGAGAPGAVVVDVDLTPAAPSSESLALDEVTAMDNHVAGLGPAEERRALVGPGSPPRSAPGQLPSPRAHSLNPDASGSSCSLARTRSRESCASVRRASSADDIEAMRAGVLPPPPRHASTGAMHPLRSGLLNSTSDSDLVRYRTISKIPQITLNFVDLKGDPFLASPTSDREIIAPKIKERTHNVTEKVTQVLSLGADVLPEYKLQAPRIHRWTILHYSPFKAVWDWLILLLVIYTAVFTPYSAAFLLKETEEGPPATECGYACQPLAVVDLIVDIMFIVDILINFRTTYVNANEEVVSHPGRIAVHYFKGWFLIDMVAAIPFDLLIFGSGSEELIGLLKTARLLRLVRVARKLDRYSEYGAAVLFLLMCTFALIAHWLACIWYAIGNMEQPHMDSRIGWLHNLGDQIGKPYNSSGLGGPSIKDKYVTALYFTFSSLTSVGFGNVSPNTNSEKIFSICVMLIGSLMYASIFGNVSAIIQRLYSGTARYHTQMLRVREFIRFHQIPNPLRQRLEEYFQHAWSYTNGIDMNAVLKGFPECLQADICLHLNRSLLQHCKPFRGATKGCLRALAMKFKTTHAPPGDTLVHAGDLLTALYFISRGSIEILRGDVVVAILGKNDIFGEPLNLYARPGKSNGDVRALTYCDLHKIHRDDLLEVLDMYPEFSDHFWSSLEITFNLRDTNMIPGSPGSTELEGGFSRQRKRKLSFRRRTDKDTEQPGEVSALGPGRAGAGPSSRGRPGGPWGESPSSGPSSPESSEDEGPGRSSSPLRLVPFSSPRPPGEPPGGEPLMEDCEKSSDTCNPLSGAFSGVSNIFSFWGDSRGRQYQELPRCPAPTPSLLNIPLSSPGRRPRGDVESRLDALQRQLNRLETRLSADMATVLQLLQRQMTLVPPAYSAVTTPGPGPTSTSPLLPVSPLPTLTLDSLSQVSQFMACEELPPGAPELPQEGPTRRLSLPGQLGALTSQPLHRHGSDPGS
`O=C1N[C@@H](Cc2ccccc2)C(=O)N2[C@@H]3N(S(=O)(=O)c4ccccc4)c4ccccc4[C@]3(Br)C[C@@H]12`: the “hERG current change (%, negative = inhibition) at 10uM” value is -13.3%.

Consider `O=C(COC(=O)c1nc(Cl)ccc1Cl)Nc1ncc(Cl)cc1Cl`, for which the “hERG current change (%, negative = inhibition) at 10uM” value is recorded as 19.2%. As for `COc1ccc(-c2noc(-c3cccnc3)n2)cc1OC`, the “hERG current change (%, negative = inhibition) at 10uM” value is given as -4.23%. As for `COc1cc2[nH]c(=O)c(C(=O)NCc3ccc(F)cc3)c(O)c2cc1OC`, the “hERG current change (%, negative = inhibition) at 10uM” value worked out at 7.75%. `O=C(CNC(=O)c1cccs1)Nc1ncccc1O`: the “hERG current change (%, negative = inhibition) at 10uM” value is given as 7.91%.

On to `Cc1nc(N(C)Cc2ccccc2)c2nnn(Cc3ccccc3)c2n1`, for which the “hERG current change (%, negative = inhibition) at 10uM” value is recorded as -37.9%. In the case of `CC(=O)Nc1ccc(Cl)cc1C(=O)O`, the “hERG current change (%, negative = inhibition) at 10uM” value is given as 5.96%. Consider `COc1ccc(CN(CC2CCCO2)C(=O)CN2C(=O)COc3ccccc32)cc1OC` (stereo not shown), for which the “hERG current change (%, negative = inhibition) at 10uM” value was -15.8%. For `CCN(CC)CCOC(=O)c1cccc2c1-c1ccccc1C2O.Cl` (stereo not shown), the “hERG current change (%, negative = inhibition) at 10uM” value is recorded as -18.8%. For `CCCCNC(=O)NC12CC3CC(CC(C3)C1)C2`, the “hERG current change (%, negative = inhibition) at 10uM” value stood at 6.46%. On to `Cc1nn(-c2ccccc2)c(C)c1C(=O)NCc1cccs1`, for which the “hERG current change (%, negative = inhibition) at 10uM” value came to 10.4%.

Regarding `O=S(=O)(c1cccc2cccnc12)N1CCCCC1`, the “hERG current change (%, negative = inhibition) at 10uM” value was 4.58%.

Turning to `CCN(CC)CCCCOc1ccccc1OC`, the “hERG current change (%, negative = inhibition) at 10uM” value is recorded as -11.6%. For `Cn1nnnc1SCC(=O)N1CCc2ccccc21` the value was 2.62%; for `CC(C)(C)NC(=O)NC(=O)COC(=O)c1cccc(NS(=O)(=O)c2ccc(F)c(F)c2)c1`, -7.24%; for `CCC(C)(C(=O)NC1CCCC1)N(C(=O)Cc1cccs1)c1c(C)n(C)n(-c2ccccc2)c1=O` (stereo not shown), 2%.

As to `O=C(CCC(=O)N1CCSc2ccccc21)Nc1ccc(F)cc1`, the “hERG current change (%, negative = inhibition) at 10uM” value is recorded as -4.12%. As for `Cc1ccc(N(CC(=O)O)S(=O)(=O)c2cccc3nonc23)cc1`, the “hERG current change (%, negative = inhibition) at 10uM” value worked out at 21%. For `COc1ccc2ccccc2c1/C=N\n1c(C)cc(C)c(C(N)=O)c1=O` the value was 1.44%. Consider `CCOC(=O)C1CCN(Cc2ccc(N(C)C)cc2)CC1`, for which the “hERG current change (%, negative = inhibition) at 10uM” value was -8.06%.

For `CC1Cc2ccccc2C(CCc2ccccc2)=N1.Cl` (stereo not shown), the “hERG current change (%, negative = inhibition) at 10uM” value is listed as -9.14%. For `Cc1cc(Cl)ccc1OCC(=O)N1CCCN(C(=O)COc2ccc(Cl)cc2C)CC1` the value was -58.5%. In the case of `Cl.Nc1nc(N2CCN(C(=O)c3ccco3)CC2)nc2ccccc12`, the “hERG current change (%, negative = inhibition) at 10uM” value is -49.4%. In the case of `CCOc1ccc(Nc2nc3cc(S(=O)(=O)CC)ccc3o2)cc1` it was -1.86%; in that of `O=C(NNC(=S)NC1CCCCC1)c1ccccc1Cl`, 9.05%.

With `CC1CCCN(CCCNC(=O)c2coc3nc4ccccc4nc23)C1` (stereo not shown), the “hERG current change (%, negative = inhibition) at 10uM” value is given as -5.67%. With `Cc1c(C(=O)N/N=C/c2c(O)ccc3ccccc23)nnn1-c1nonc1N`, the “hERG current change (%, negative = inhibition) at 10uM” value was found to be 27.5%. In the case of `COc1ccc(C2CC(C(F)(F)F)n3nc(C(=O)NCCCn4ccnc4)cc3N2)cc1OC` (stereo not shown) it was -4.72%; in that of `COc1cc(NC(=O)CN2CCN(S(=O)(=O)/C=C/c3ccccc3)CC2)cc(OC)c1OC`, -14.8%.

In the case of `CC(C)NC(=S)Nc1ccc2[nH]c(=O)[nH]c2c1`, the “hERG current change (%, negative = inhibition) at 10uM” value worked out at 10.8%. As for `CCOc1ccnc2c1c(=O)n(Cc1cc(OC)cc(OC)c1)c(=O)n2C`, the “hERG current change (%, negative = inhibition) at 10uM” value was -2.37%. For `CCSc1nsc(SCC)c1C(N)=O` the value was 7.66%; for `Cc1c(NC(=O)COc2ccc(C(C)C)cc2)c(=O)n(-c2ccccc2)n1C`, -46.8%. For the compound `Cc1ccc(CNC(=O)/C=C/c2cccs2)cc1`, the “hERG current change (%, negative = inhibition) at 10uM” value is on record as -14.8%. For `Cc1cccc(OCC(=O)Nc2cc(Cl)ccc2-n2cncn2)c1C` the value was -3.83%. With `Cc1c(C(=O)NC(=S)NCc2cccnc2)oc2ccccc12`, the “hERG current change (%, negative = inhibition) at 10uM” value is given as -6.6%. With `CCc1ccc2c(CN(CC)Cc3nc4ccccc4c(=O)[nH]3)cc(=O)oc2c1`, the “hERG current change (%, negative = inhibition) at 10uM” value is -71.6%.

Consider `CCN1CCCC1CNC(=O)c1cc(OC)c(OC)c(OC)c1` (stereo not shown), for which the “hERG current change (%, negative = inhibition) at 10uM” value worked out at 12.8%. For `Cc1ccc(N(C(=O)c2snc(C(N)=O)c2N)C(C(=O)NCC2CCCO2)c2ccc(C)o2)c(C)c1` (stereo not shown) the value was -40.9%; for `CCOc1ccc2[nH]c(=O)c(CN(CCO)C(=O)CC)cc2c1`, 22.8%. Consider `CN(CC(=O)Nc1ccc(Cl)c(C(F)(F)F)c1)C(=O)c1cccs1`, for which the “hERG current change (%, negative = inhibition) at 10uM” value was determined as 6.98%. For the compound `CCOc1nc2cnccc2n(CC(=O)Nc2ccccc2F)c1=O`, the “hERG current change (%, negative = inhibition) at 10uM” value is reported as 26.4%. Turning to `CCOc1ccc(Cc2c(Cl)nc(SC)nc2OC)cc1`, the “hERG current change (%, negative = inhibition) at 10uM” value came out at 2.63%.

Regarding `COc1ccc(Cc2nnc(NC(=O)c3ccc(F)cc3)s2)cc1OC`, the “hERG current change (%, negative = inhibition) at 10uM” value was 18.1%.

On to `Cc1cccc(-c2cc3nc4c(c(N5CCCC(O)C5)n3n2)CCC4)c1` (stereo not shown), for which the “hERG current change (%, negative = inhibition) at 10uM” value is reported as -41.1%. As to `Cc1c(C)c2cc(Cl)c(O)c(CN3CCCCC3)c2oc1=O`, the “hERG current change (%, negative = inhibition) at 10uM” value is 12.1%. For `O=C(CSc1nnc(-c2csc3c2CCCC3)o1)Nc1ccccc1`, the “hERG current change (%, negative = inhibition) at 10uM” value is given as -0.706%. In the case of `Cc1cc(N2CCOCC2)nc(SCc2ccc(Cl)cc2Cl)n1` it was -11.3%; in that of `COc1ccc2[nH]c(=O)c(-c3noc(-c4ccc(F)cc4)n3)cc2c1`, 1.57%. On to `CN(C)CCNc1nc(-c2ccccc2)c2c(c1C#N)CC(C)(C)OC2`, for which the “hERG current change (%, negative = inhibition) at 10uM” value is -42.4%. `Cc1sc2nc(CN3CCOCC3)nc(Oc3ccc(NC(=O)c4ccco4)cc3)c2c1C`: the “hERG current change (%, negative = inhibition) at 10uM” value is -38.9%. For `O=C(O)C(=O)O.OC(COC(c1ccc(F)cc1)c1ccc(F)cc1)CN1CCCC1` (stereo not shown) the value was -70.6%; for `O=C(NNC(=O)c1ccc(Br)s1)c1cccc(Cl)c1`, 11.7%; for `CNC(=O)/C(=C\c1ccco1)NC(=O)c1ccco1`, 10.3%. For `CC(C)n1c(=O)c(C=Nc2ccc(S(N)(=O)=O)cc2)c(O)n(Cc2ccco2)c1=O`, the “hERG current change (%, negative = inhibition) at 10uM” value turned out to be 2.73%.

Turning to `Cc1nn(-c2ccc(N3CCOCC3)nn2)c(C)c1CCC(=O)N1CCN(C)CC1`, the “hERG current change (%, negative = inhibition) at 10uM” value stood at 14%. For `Cc1ccc(S(=O)(=O)NCC(=O)OCC(=O)NC(=O)c2cccn2C)cc1` the value was 9.14%; for `O=C(NN=C1CCCCCC1)c1cc(-c2ccccc2)nc2ccccc12`, -14.5%. In the case of `Cn1c(=O)c2c(ncn2CC(=O)N/N=C/c2ccco2)n(C)c1=O` it was -4.23%; in that of `CC(C)(C)c1ccc(Cn2nnc3c(=O)[nH]c(C4CCCN(C(=O)c5ccco5)C4)nc32)cc1` (stereo not shown), -11%. For `CCOC(=O)CSc1nnc(COc2ccc3ccccc3c2)o1` the value was 11.1%. As for `CCC(CC)C(=O)c1c[nH]c(C(=O)NC2CCCCCC2)c1`, the “hERG current change (%, negative = inhibition) at 10uM” value is -27.3%. As to `O=C(Nc1cccc(-n2cnnn2)c1)c1cc(Cl)nc(Cl)c1`, the “hERG current change (%, negative = inhibition) at 10uM” value is listed as -4.24%.

As to `CC(=O)c1ccc(N2CCN(C(=O)Nc3ccc(Cl)cc3)CC2)cc1`, the “hERG current change (%, negative = inhibition) at 10uM” value is listed as -8.35%.

Take `O=C(Cn1nc(-c2ccc3c(c2)OCCO3)ccc1=O)Nc1ccc(-n2cnnn2)cc1`: the “hERG current change (%, negative = inhibition) at 10uM” value turned out to be 17%.

With `CCC(C)(C)NC(=O)C(Sc1ccccc1)c1ccccc1` (stereo not shown), the “hERG current change (%, negative = inhibition) at 10uM” value came to 9.2%.

With `COc1ccc(NC(=O)CSc2nnc(-c3ccncc3)o2)c([N+](=O)[O-])c1`, the “hERG current change (%, negative = inhibition) at 10uM” value stood at 6.12%.

Turning to `O=C(NCc1ccco1)c1ccc2c(=O)n(CC3CCCO3)c(=S)[nH]c2c1` (stereo not shown), the “hERG current change (%, negative = inhibition) at 10uM” value is recorded as -1.68%. Regarding `COc1ccc(CCN(C)C(=O)CN2C(=O)NC3(CCCc4ccccc43)C2=O)cc1OC` (stereo not shown), the “hERG current change (%, negative = inhibition) at 10uM” value is given as 11.6%.

Regarding `CCOc1ccccc1NC(=O)CN(c1nccs1)S(=O)(=O)c1ccc(N)cc1`, the “hERG current change (%, negative = inhibition) at 10uM” value is recorded as 15%.

On to `CCOC(=O)c1c(S(=O)(=O)N2CCCC(C)C2)c(C)n(C)c1C` (stereo not shown), for which the “hERG current change (%, negative = inhibition) at 10uM” value was found to be 2.59%. In the case of `CC1(C)Cc2c(c(N3CCOCC3)nc3sc(-c4ccc(C(=O)O)o4)c(N)c23)CO1` it was -15.2%. For `CCOC(=O)NC(=O)CSc1ccc(C)cc1C` the value was -1.12%. For `c1ccc2c(c1)nc(CN1CCOCC1)n1c3ccccc3nc21` the value was -41.5%; for `Cc1nnc(SCCCN2C(=O)c3ccccc3C2=O)o1`, -1.14%; for `CCOCCCNC(=O)CCc1ccc(-n2cnc3cccnc32)cc1`, 5.37%.

`Cc1ccc(C2CC(=O)NC(SCc3ccccc3)=C2C#N)o1` (stereo not shown): the “hERG current change (%, negative = inhibition) at 10uM” value is listed as -8.11%. In the case of `COc1ccc(OC)c(N(CC(=O)Nc2cccnc2)S(=O)(=O)c2ccc(C)cc2)c1` it was -12.1%. On to `CC(NC(=O)Cn1nc(-c2ccccc2)ccc1=O)c1ccccc1` (stereo not shown), for which the “hERG current change (%, negative = inhibition) at 10uM” value is listed as -13.4%. Turning to `O=C(N/N=C/c1ccc2c(c1)OCO2)c1ccccn1`, the “hERG current change (%, negative = inhibition) at 10uM” value is reported as 5.36%. As to `COC(=O)CNC(=O)C1Nc2ccccc2C2C=CCC12` (stereo not shown), the “hERG current change (%, negative = inhibition) at 10uM” value is recorded as 3.38%.

`NS(=O)(=O)c1ccc(Nc2nc(-c3ccc(O)cc3)cs2)cc1`: the “hERG current change (%, negative = inhibition) at 10uM” value was determined as 7.56%.

In the case of `CCC(=O)n1nc(NCc2ccc(OC)c(OC)c2)nc1NCc1ccc(OC)c(OC)c1`, the “hERG current change (%, negative = inhibition) at 10uM” value is given as 2.76%. As for `O=C(Nc1ccc(Cl)c(-c2nc3ccccc3[nH]2)c1)c1ccc2c(c1)OCO2`, the “hERG current change (%, negative = inhibition) at 10uM” value was -15%. In the case of `Cc1[nH]nc2ncc(C(=O)c3cc(F)ccc3O)cc12` it was -7.26%; in that of `Nc1nonc1-n1nnc(C(=O)N/N=C/c2c(Cl)cccc2Cl)c1CN1CCOCC1`, 29.7%. In the case of `COc1ccc(Cl)cc1NC(=O)C1Cc2cc(S(=O)(=O)N3CCCC3)ccc2N1C(C)=O` (stereo not shown) it was -10.3%. On to `CCOC(=O)/C=C1\SCC(=O)N1CC(=O)Nc1ccccc1OC(F)F`, for which the “hERG current change (%, negative = inhibition) at 10uM” value came out at 18.8%.
